The whole screen tested about 50,000 compounds, of which about 800 (1.6%) showed an effect of 50% or more. This is one part of the list.

The target in this assay is Bcl-2-like protein 10 (Homo sapiens) (UniProt Q9HD36). As to the kind of experiment: Phenotype converters, Bcl-B/TR3 peptide binding displacement, primary biochemical FP (AID 1240).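 Also: 0% = Bcl-B with tracer peptide and DMSO and 100% = tracer peptide lacking Bcl-B.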 Particulars: GST-Bcl-B / FITC-TR3 peptide fluorescence polarization; stronger effect = higher value; compound at 3.75 mg/L.
Sequence of UniProt Q9HD36 (Q9HD36 whole entry, looked up): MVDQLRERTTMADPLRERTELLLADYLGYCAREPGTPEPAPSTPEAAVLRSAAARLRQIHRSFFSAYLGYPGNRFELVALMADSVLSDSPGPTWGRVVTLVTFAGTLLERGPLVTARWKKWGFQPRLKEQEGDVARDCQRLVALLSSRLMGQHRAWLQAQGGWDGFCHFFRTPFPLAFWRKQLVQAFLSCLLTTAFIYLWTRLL
On to `O=C(COc1cccc(Cl)c1)Nc1nccs1`, for which the displacement is -2.9%.
Regarding `COc1cc(/C=N\NC(=O)c2c(C)nc3cc(C)ccn23)ccc1O`, the displacement turned out to be 14.9%.
As to `COc1ccc(OCc2ccc(C(=O)Nc3ccccc3C(=O)O)cc2)cc1`, the displacement stood at 3.2%.
In the case of `O=[N+]([O-])c1cccc(S(=O)(=O)N2CCc3ccccc3C2)c1`, the displacement is 0%.
On to `CCCCOC(=O)Nc1ccc(S(=O)(=O)Nc2ccc(F)cc2)cc1`, for which the displacement is 9.9%.
For `O=c1[nH]c(SC/C=C/c2ccccc2)nc2sc3c(c12)CCCC3`, the displacement is 16.8%.
As for `CC(C)C(C(=O)O)N1C(=O)/C(=C/c2ccc([N+](=O)[O-])cc2)SC1=S` (configuration not stated), the displacement came to 11.8%.
With `O=C(Nc1ccc(-c2nc3ccccc3[nH]2)cc1)c1ccc(Cl)cc1`, the displacement is -1.5%.
For the compound `CCOC(=O)c1c(NC(=O)Cc2ccc(Cl)cc2)sc(C(=O)Nc2ccccc2F)c1C`, the displacement amounted to 3%.
For the compound `CC(=O)N1CCN(c2ccc([N+](=O)[O-])c(N)c2)CC1`, the displacement was determined as 12.4%.
For `COc1ccc(/C=C/C(=O)c2c(O)c(OC)c3occc3c2OC)cc1OC`, the displacement is -0.6%.
For `O=C(CN(Cc1ccccc1)S(=O)(=O)c1ccccc1)N/N=C/c1ccc(Cl)cc1`, the displacement is -2.4%.
On to `CCc1ccc(-c2cc(C(=O)NC(C)(C)C)c3ccccc3n2)cc1`, for which the displacement was 2.5%.
In the case of `O=C(NCc1cccnc1)c1ccc(S(=O)(=O)N2CCCCC2)cc1`, the displacement is 1.1%.
As to `O=C(NCc1ccncc1)C1CCCC1`, the displacement is -7.7%.
For the compound `O=C1OC(c2ccccc2F)=N/C1=C\c1ccc2c(c1)OCO2`, the displacement was determined as 80%.
With `CC(C)C1=NN2C(=N)/C(=C/c3ccc(OCc4ccc(F)cc4)cc3)C(=O)N=C2S1`, the displacement stood at 6.4%.
Regarding `O=[N+]([O-])c1ccc(-c2[nH]nc(-c3ccccc3)c2-c2nc3ccccc3[nH]2)cc1`, the displacement stood at 12.7%.
The same measure for `O=C(N/N=C/c1ccc(-c2ccc(I)cc2)o1)c1ccccn1`: -8%; for `O=C(O)c1ccc(C=Nc2cccc3ccccc23)cc1`: 46.4%.
On to `Cc1ccc(C(=O)NN2C(=O)C3C4C=CC(C5CC45)C3C2=O)cc1` (configuration not stated), for which the displacement is -18.2%.
Regarding `COc1ccc(/C=C2\SC(=S)N(c3cccc(F)c3)C2=O)c(OC)c1`, the displacement was determined as 12.2%.
The same measure for `O=C(C[n+]1ccc(NC(=O)c2ccccc2)cc1)c1ccccc1`: 10%; for `COc1ccc2c(c1)C(=O)/C(=C/c1cccc(I)c1)CC2`: 10.5%.
As to `COc1cc(/C=N/NC(=O)c2ccncc2)cc(OC)c1O`, the displacement was 10%.
To `COc1ccccc1NC(=O)c1ccc(NC(=O)C(C)(C)C)cc1` belongs -4.6%.
As to `C=CCn1c(SCC(=O)OCC)nnc1-c1ccc([N+](=O)[O-])cc1`, the displacement was -4.9%.
As for `CC(C)=C1C2C=CC1C1C(=O)N(c3ccc(C)cc3[N+](=O)[O-])C(=O)C21` (configuration not stated), the displacement turned out to be 12.1%.
As to `C#CCSc1nc2ccccc2n1C(=O)c1sc2ccccc2c1Cl`, the displacement is -1%.
Consider `CCN1C(=O)/C(=C\c2cccc(OC)c2OC)SC1=S`, for which the displacement is -0.3%.
As for `CCOc1ccc(NC(=O)C(NS(=O)(=O)c2ccc(C)cc2)C(C)C)cc1` (configuration not stated), the displacement turned out to be 11%.
For `COC(=O)C1=C(C)NC2=C(C(=O)CCC2)C1c1ccc(OCc2ccc([N+](=O)[O-])cc2)c(OC)c1` (configuration not stated), the displacement stood at 10%.
`O=c1oc(-c2ccc(Cl)c(Cl)c2)nc2ccccc12`: the displacement is -0.6%.
With `COC1CCCCC1N1CCN(C(=O)c2ccco2)CC1` (configuration not stated), the displacement was determined as 1.2%.
Consider `Cc1[nH]n(-c2nc(-c3ccccc3)cs2)c(=O)c1N=Nc1ccc(C(=O)O)cc1`, for which the displacement was 4.5%.
Take `Cc1cc(C(=O)Nc2ccc(C(N)=O)cc2)ccc1[N+](=O)[O-]`: the displacement came out at 2.6%.
Turning to `COc1ccc(S(=O)(=O)Nc2ccc(Br)cc2C)cc1`, the displacement was found to be 11.4%.
To `CCOC(=O)C1=NN(C(=O)c2cccc(C)c2)C(O)(c2ccc(Cl)cc2)C1` (configuration not stated) belongs -0.2%.
Turning to `O=C(/C=C/c1ccccc1)Nc1nnc(-c2ccccc2)s1`, the displacement is 7.6%.
For the compound `Cc1ccc(OCCCCn2ccnc2)c(Cl)c1`, the displacement was -2%.
Take `COc1ccc(/C=C2/N=C(c3cccc(C)c3)N(c3ccc(O)cc3)C2=O)cc1OC`: the displacement turned out to be 11%.
For the compound `O=C(NCCCn1ccnc1)c1ccccc1Br`, the displacement was -8.7%.
To `CC(C)(C)C(=O)Nc1ccc(-c2nc3ccccc3o2)cc1` belongs 2.6%; to `CC1(C)CC(=O)C(N=Nc2ccc3[nH]c(=O)[nH]c3c2)=C(O)C1`, -26%.
As to `CCCCNC(=O)/C(=C/c1ccc(-c2cccc([N+](=O)[O-])c2)o1)NC(=O)c1ccc(OC)cc1`, the displacement came to 9.9%.
As to `CC1CCOP(=O)(C(Nc2ccc(Br)cc2)c2ccc(Br)cc2)O1` (configuration not stated), the displacement was -11.6%.
The same measure for `O=C(CCCOc1ccccc1)Nc1ccc2c(c1)OCO2`: -0.7%; for `COc1cccc(NC(=O)C(=O)N/N=C/c2ccc(C(=O)O)cc2)c1`: 6.3%.
The same measure for `COC(=O)C(NC(=O)CCC1CCCCC1)C12CC3CC(CC(C3)C1)C2` (configuration not stated): 4.1%; for `O=C(/C=C/c1cccc([N+](=O)[O-])c1)Nc1ccc(N2CCOCC2)cc1`: 4.6%; for `CC(=O)OCCCNc1cc(N2CCCC2)ccc1[N+](=O)[O-]`: -4%.
`COC(=O)c1ccc(-c2nc3nnc(C)n3[nH]2)cc1`: the displacement stood at 5.9%.
As to `O=C(CSc1ccccn1)Nc1ccc([N+](=O)[O-])cc1`, the displacement came to 0.6%.
Turning to `O=c1[nH]c(N/N=C/C2CC=CCC2)nnc1-c1ccccc1` (configuration not stated), the displacement is -19.2%.
The same measure for `N#Cc1ccccc1N=C1CCCN1Cc1ccccc1`: 17.4%; for `CC(C)(C)c1ccc(C(=O)NNC(=O)c2ccc(Cl)cc2Cl)cc1`: -9.3%; for `Cc1c(C(c2cc(Br)ccc2O)c2c(C)n(C)n(-c3ccccc3)c2=O)c(=O)n(-c2ccccc2)n1C`: -9.1%.
Consider `O=C(O)CN1C(=O)/C(=C2\SC(=S)NC2=O)c2ccccc21`, for which the displacement is 36%.
`Cc1ccc2nc(NC(=O)c3c(-c4ccccc4)noc3C)sc2c1`: the displacement turned out to be 2.1%.
As for `CC(=O)Nc1ccc(NC(=O)c2ccccc2-c2ccccc2C(=O)O)cc1`, the displacement was -5.9%.
As to `CN(C)c1ccc(C2/C(=C(\O)c3ccc(F)cc3)C(=O)C(=O)N2CCCCCC(=O)O)cc1` (configuration not stated), the displacement worked out at 9.1%.
As to `COc1ccc(Br)cc1C(=O)Nc1nc(-c2ccccc2)cs1`, the displacement is -2.9%.
Regarding `COc1ccc(C2/C(=C(/O)c3ccc(C)cc3)C(=O)C(=O)N2CCCn2ccnc2)cc1` (configuration not stated), the displacement was determined as 6.3%.
Turning to `Cc1c(C)c2ccc(OC(C)C)c(C)c2oc1=O`, the displacement is -0.7%.
The same measure for `Oc1c(/C=C2/C=Nc3ccccc32)sc(=S)n1-c1cccc(C(F)(F)F)c1`: 2.5%; for `Cc1ccc(N2C(=O)c3ccc(-c4nc5c(C)cccc5c(=O)o4)cc3C2=O)cc1C`: -2.5%.
For `O=P(CCCO)(c1ccccc1)c1ccccc1`, the displacement came to 20.9%.
The same measure for `N#CC(C#N)=NNc1ccccc1C(=O)O`: -0.9%.
`COc1ccc(/C=C(C(=O)O)/C(C)=C/C(=O)O)c(OC)c1`: the displacement was determined as 7.5%.
`CCn1c(=O)c(C(=O)NCCN2CCOCC2)c(O)c2ccccc21`: the displacement came to 1.4%.
To `CC(=O)Nc1ccc(Oc2ccc(NC(C)=O)c(NC(C)=O)c2)cc1` belongs -0.1%; to `O=C(O)C(c1ccccc1)C(c1ccccc1)c1ccccc1` (configuration not stated), -1.6%; to `C=C(C)c1cccc(C(C)(C)NC(=O)NCc2ccco2)c1`, -1.9%.
On to `O=C(COc1ccccc1)N1N=C(c2ccc(Cl)cc2)CC1(O)C(F)(F)F` (configuration not stated), for which the displacement was 4.5%.
In the case of `O=C(/C=C/c1cccc([N+](=O)[O-])c1)Nc1ccc(N2CCCCC2)cc1`, the displacement is -1.4%.
To `COc1ccc(-c2cc(C(=O)Nc3sc(C)c(C)c3C#N)c3ccccc3n2)c(OC)c1` belongs -1.7%; to `CC1=CC(C)(C)NC(=S)N1c1ccc2ccccc2c1`, -0.3%; to `O=S(=O)(c1ccccc1)N(Cc1ccc(F)cc1)c1ccccc1`, -1.1%.
As to `CCc1ccc(NC(=O)C(=O)NCc2ccccc2OC)cc1`, the displacement was 6.8%.
Take `O=C1Nc2ccccc2/C1=c1/sc2nc3ccccc3n2c1=O`: the displacement stood at 13.2%.
`CC(C)c1ccc(CNC(=O)CSCC(=O)Nc2ccccc2)cc1`: the displacement was -11.1%.
Consider `Cc1ccc(-c2noc(COc3cccc(C)c3)n2)cc1`, for which the displacement amounted to 3.2%.
The same measure for `COc1ccc(NC(=O)CCN2C(=O)S/C(=C/c3ccc(OC)c(OC)c3)C2=O)cc1`: -1.4%; for `COc1ccc(/C=C2\SC(=S)N(CCCCCC(=O)Nc3ccccc3C(=O)O)C2=O)cc1`: 8.3%; for `COc1ccc(/C(C)=N\N=C2\NC(=O)CC(C(=O)NCCc3ccc(S(N)(=O)=O)cc3)S2)cc1` (configuration not stated): -2%.
To `O=C1C=Cc2ccccc2/C1=N/Oc1ccc2noc3c2c1C(=O)c1ccccc1-3` belongs 25.9%.
`Cc1ccc(N(CC(=O)NC2CCCC2)S(=O)(=O)c2ccccc2)cc1`: the displacement turned out to be 7.2%.
With `CCOC(=O)C1=C(C)N=c2s/c(=C\c3cccc([N+](=O)[O-])c3)c(=O)n2C1c1ccc(OC(C)=O)cc1` (configuration not stated), the displacement was 8.6%.
Regarding `CCCCCC(=O)NNC(=O)Nc1ccccc1`, the displacement is -4.8%.
Turning to `O=c1oc2ccccc2cc1-c1nc2ccccc2s1`, the displacement is -1%.
As for `CCOc1ccc(S(=O)(=O)N(CC(=O)Nc2ccc(C)cc2)c2ccc(C)cc2)cc1`, the displacement amounted to 16.5%.
For `O=C(Nc1ccc(-c2ccc(Cl)cc2)cc1)c1ccco1`, the displacement came to 12.5%.
Take `Cc1c(NC(=O)CN2C(=O)/C(=C/c3ccccc3Cl)SC2=S)c(=O)n(-c2ccccc2)n1C`: the displacement came to 12.8%.
With `CC12CC3CC(C)(C1)CC(C(=O)Nc1ccc(Cl)cc1)(C3)C2`, the displacement came out at 6.9%.
Turning to `Cc1sc2nc(SCC(=O)NCCO)n(-c3ccccc3)c(=O)c2c1C`, the displacement came to 1.9%.
Consider `Cc1ccc(S(=O)(=O)Nc2cc(C)c(O)c(Sc3ncn[nH]3)c2)cc1`, for which the displacement was 19.8%.
Take `Cc1ccc(N2CCN(/N=C\c3ccccc3C(F)(F)F)CC2)cc1`: the displacement is -1.7%.
In the case of `O=[N+]([O-])/C(=C\c1ccccc1)c1ccccc1`, the displacement is -12.2%.
As to `COc1cc(N)c(C(c2ccc(C)o2)c2ccc(C)o2)cc1OC`, the displacement stood at 5.3%.
For the compound `COC(=O)C(=O)/C=C(/O)c1ccc(C)cc1`, the displacement amounted to 7.7%.
Regarding `Cc1ccccc1CNC(=O)CN(c1ccc(Oc2ccccc2)cc1)S(C)(=O)=O`, the displacement worked out at 7.2%.
Take `O=C(Nc1sc2c(c1C(=O)Nc1ccccc1)CCC2)c1cccc(Br)c1`: the displacement was -4.9%.
For the compound `O=C(NCCNc1ccc(Cl)cc1[N+](=O)[O-])c1ccccc1Br`, the displacement stood at 5.3%.
Take `O=C(CCN1C(=O)/C(=C/c2ccc(Cl)cc2)SC1=S)Nc1cccc(O)c1`: the displacement is -3.6%.
Regarding `CC(NC(=O)COc1ccc(Br)cc1)c1ccccc1` (configuration not stated), the displacement turned out to be 3.2%.
Turning to `C/C(=N\NC(=O)c1ccco1)c1ccco1`, the displacement amounted to 5.3%.
Take `COc1ccccc1C(=O)N1CCN(S(C)(=O)=O)CC1`: the displacement amounted to 9.2%.
